# The supplement of paper PMC8728848
# Some of the results follow.
# B1: B1257 (Bifidobacterium sp) (protein)
# chain: MKKSIRLVAAIAALAMTAGISACGSSTNGNQAKSDVTAQDVETALTDTSKNVELTVWAYSAKQMEPTVKAFEKKYPHIKINFVNTGAAGDHFTKFQNVVQAQKDIPDVVQMGANKFQQFAVSGALLNFANDSIEKAWSKLYTKTAWAQVHYAGGLYGAPQDATPLANYVRKDILDEHNLQVPESWEDIYNEGIKLHKEDSNKYMGILGSDISFFTNLYRSVGARLWKVNSVDDVELTMNSGKAKEFTEFLQKCLKDGVLEGGTVFTDEFNRSINDGRYATFINENWMGNTYKEQNPSLKGKMVVAAPPSWKGQPYQSSSVGSMMSVSAACPKEKQAAALAFINWLDSDKDAIQSWQDTNNGNFFMAASVYQDDENQRNKKETDGYYANDDVNAVYFDSMDKVNTDWEYLPFMSQVEVVFNDVIVPQMNENGDLVGAMAKAQQELKTYAKDNGFKVTTDAD
# Tests used:
# Assay in all cases: glycan array binding signal (z-score within array); higher = stronger binding
# Details in all cases: glycan notation: IUPAC condensed, linker removed
# [1] = target: Gal(b1-4)GlcNAc(b1-3)Gal(b1-4)GlcNAc(b1-3)Gal(b1-4)GlcNAc(b1-3)Gal(b1-4)GlcNAc(b1-2)Man(a1-3)[Gal(b1-4)GlcNAc(b1-3)Gal(b1-4)GlcNAc(b1-3)Gal(b1-4)GlcNAc(b1-3)Gal(b1-4)GlcNAc(b1-2)Man(a1-6)]Man(b1-4)GlcNAc(b1-4)[Fuc(a1-6)]GlcNAc
# Method in brief: (§1)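 The Consortium for Functional Glycomics database supplied 3228 glycan arrays, of which those lacking an available protein sequence were dropped. The binding signal, a within-array Z-score, was averaged across arrays of the same protein sequence and across linkers. Negative scores can be read as non-binding.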
# [2] = target: Gal(b1-4)GlcNAc(b1-3)Gal(b1-4)GlcNAc(b1-3)Gal(b1-4)GlcNAc(b1-3)Gal(b1-4)GlcNAc(b1-2)[Gal(b1-4)GlcNAc(b1-3)Gal(b1-4)GlcNAc(b1-3)Gal(b1-4)GlcNAc(b1-3)Gal(b1-4)GlcNAc(b1-6)]Man(a1-6)[Gal(b1-4)GlcNAc(b1-3)Gal(b1-4)GlcNAc(b1-3)Gal(b1-4)GlcNAc(b1-3)Gal(b1-4)GlcNAc(b1-2)Man(a1-3)]Man(b1-4)GlcNAc(b1-4)[Fuc(a1-6)]GlcNAc
# Method in brief: as §1
# [3] = target: Gal(b1-4)GlcNAc(b1-3)Gal(b1-4)GlcNAc(b1-3)Gal(b1-4)GlcNAc(b1-3)Gal(b1-4)GlcNAc(b1-3)Gal(b1-4)GlcNAc(b1-2)Man(a1-3)[Gal(b1-4)GlcNAc(b1-3)Gal(b1-4)GlcNAc(b1-3)Gal(b1-4)GlcNAc(b1-3)Gal(b1-4)GlcNAc(b1-3)Gal(b1-4)GlcNAc(b1-2)Man(a1-6)]Man(b1-4)GlcNAc(b1-4)GlcNAc
# Method in brief: as §1
# [4] = target: Gal(b1-4)GlcNAc(b1-3)Gal(b1-4)GlcNAc(b1-3)Gal(b1-4)GlcNAc(b1-3)Gal(b1-4)GlcNAc(b1-3)Gal(b1-4)GlcNAc(b1-2)Man(a1-3)[Gal(b1-4)GlcNAc(b1-3)Gal(b1-4)GlcNAc(b1-3)Gal(b1-4)GlcNAc(b1-3)Gal(b1-4)GlcNAc(b1-3)Gal(b1-4)GlcNAc(b1-2)Man(a1-6)]Man(b1-4)GlcNAc(b1-4)[Fuc(a1-6)]GlcNAc
# Method in brief: as §1
# [5] = target: Gal(b1-4)GlcNAc(b1-3)Gal(b1-4)GlcNAc(b1-3)Gal(b1-4)GlcNAc(b1-3)Gal(b1-4)GlcNAc(b1-3)Gal(b1-4)GlcNAc(b1-2)[Gal(b1-4)GlcNAc(b1-3)Gal(b1-4)GlcNAc(b1-3)Gal(b1-4)GlcNAc(b1-3)Gal(b1-4)GlcNAc(b1-3)Gal(b1-4)GlcNAc(b1-6)]Man(a1-6)[Gal(b1-4)GlcNAc(b1-3)Gal(b1-4)GlcNAc(b1-3)Gal(b1-4)GlcNAc(b1-3)Gal(b1-4)GlcNAc(b1-3)Gal(b1-4)GlcNAc(b1-2)Man(a1-3)]Man(b1-4)GlcNAc(b1-4)[Fuc(a1-6)]GlcNAc
# Method in brief: as §1
# [6] = target: Gal(b1-4)GlcNAc(b1-3)Gal(b1-4)GlcNAc(b1-3)Gal(b1-4)GlcNAc(b1-3)Gal(b1-4)GlcNAc(b1-3)Gal(b1-4)GlcNAc(b1-3)Gal(b1-4)GlcNAc(b1-2)Man(a1-3)[Gal(b1-4)GlcNAc(b1-3)Gal(b1-4)GlcNAc(b1-3)Gal(b1-4)GlcNAc(b1-3)Gal(b1-4)GlcNAc(b1-3)Gal(b1-4)GlcNAc(b1-3)Gal(b1-4)GlcNAc(b1-2)Man(a1-6)]Man(b1-4)GlcNAc(b1-4)GlcNAc
# Method in brief: as §1
# [7] = target: Gal(b1-4)GlcNAc(b1-3)Gal(b1-4)GlcNAc(b1-3)GalNAc
# Method in brief: as §1
# [8] = target: Gal(b1-4)GlcNAc(b1-3)Gal(b1-4)GlcNAc(b1-3)[Gal(b1-4)GlcNAc(b1-3)Gal(b1-4)GlcNAc(b1-6)]GalNAc
# Method in brief: as §1
# [9] = target: Gal(b1-4)GlcNAc(b1-3)Gal(b1-4)GlcNAc(b1-6)[Gal(b1-3)]GalNAc
# Method in brief: as §1
# [10] = target: Gal(b1-4)GlcNAc(b1-3)Gal(b1-4)[Fuc(a1-3)]GlcNAc(b1-3)Gal(b1-4)[Fuc(a1-3)]GlcNAc
# Method in brief: as §1
# [11] = target: Gal(b1-4)GlcNAc(b1-3)GalNAc
# Method in brief: as §1
# [12] = target: Gal(b1-4)GlcNAc(b1-3)[Fuc(a1-3)GlcNAc(b1-6)]Gal(b1-4)Glc
# Method in brief: as §1
# [13] = target: Gal(b1-4)GlcNAc(b1-3)[Gal(b1-4)GlcNAc(b1-6)]Gal(b1-4)GlcNAc
# Method in brief: as §1
# [14] = target: Gal(b1-4)GlcNAc(b1-3)[GlcNAc(b1-6)]Gal(b1-4)GlcNAc
# Method in brief: as §1
# [15] = target: Gal(b1-4)GlcNAc(b1-6)Gal(b1-4)GlcNAc
# Method in brief: as §1
# [16] = target: Gal(b1-4)GlcNAc(b1-6)GalNAc
# Method in brief: as §1
# [17] = target: Gal(b1-4)GlcNAc(b1-6)[Gal(b1-3)]GalNAc
# Method in brief: as §1
# [18] = target: Gal(b1-4)GlcNAc(b1-6)[Gal(b1-4)GlcNAc(b1-3)]GalNAc
# Method in brief: as §1
# Gal(b1-4)GlcNAc6P = target: Gal(b1-4)GlcNAc6P
# Method in brief: as §1
# Gal(b1-6)Gal = target: Gal(b1-6)Gal
# Method in brief: as §1
# Gal3S(b1-3)GalNAc = target: Gal3S(b1-3)GalNAc
# Method in brief: as §1
# Gal3S(b1-3)GlcNAc = target: Gal3S(b1-3)GlcNAc
# Method in brief: as §1
# [19] = target: Gal3S(b1-3)[Fuc(a1-4)]GlcNAc
# Method in brief: as §1
# Gal3S(b1-4)Glc = target: Gal3S(b1-4)Glc
# Method in brief: as §1
# Gal3S(b1-4)Glc6S = target: Gal3S(b1-4)Glc6S
# Method in brief: as §1
# Gal3S(b1-4)GlcNAc = target: Gal3S(b1-4)GlcNAc
# Method in brief: as §1
# [20] = target: Gal3S(b1-4)[Fuc(a1-3)]Glc6S
# Method in brief: as §1
# [21] = target: Gal3S(b1-4)[Fuc(a1-3)]GlcNAc
# Method in brief: as §1
# [22] = target: Gal3S(b1-4)[Fuc(a1-3)]GlcNAc6S
# Method in brief: as §1
# Gal3S4S(b1-4)GlcNAc = target: Gal3S4S(b1-4)GlcNAc
# Method in brief: as §1
# Gal3S6S(b1-4)GlcNAc = target: Gal3S6S(b1-4)GlcNAc
# Method in brief: as §1
# Gal3S6S(b1-4)GlcNAc6S = target: Gal3S6S(b1-4)GlcNAc6S
# Method in brief: as §1
# Gal4S(b1-4)GlcNAc = target: Gal4S(b1-4)GlcNAc
# Method in brief: as §1
# Gal4S6S(b1-4)GlcNAc = target: Gal4S6S(b1-4)GlcNAc
# Method in brief: as §1
# Gal6P(b1-4)GlcNAc = target: Gal6P(b1-4)GlcNAc
# Method in brief: as §1
# Gal6S(b1-3)GlcNAc = target: Gal6S(b1-3)GlcNAc
# Method in brief: as §1
# Gal6S(b1-3)GlcNAc6S = target: Gal6S(b1-3)GlcNAc6S
# Method in brief: as §1
# Gal6S(b1-4)Glc = target: Gal6S(b1-4)Glc
# Method in brief: as §1
binder,measurement,setting,value
B1,glycan array binding signal (z-score),[1],0.042
same,glycan array binding signal (z-score),[2],0.009
same,glycan array binding signal (z-score),[3],-0.019
same,glycan array binding signal (z-score),[4],-0.012
same,glycan array binding signal (z-score),[5],0.107
same,glycan array binding signal (z-score),[6],-0.052
same,glycan array binding signal (z-score),[7],0.005
same,glycan array binding signal (z-score),[8],0.042
same,glycan array binding signal (z-score),[9],0.111
same,glycan array binding signal (z-score),[10],-0.061
same,glycan array binding signal (z-score),[11],-0.132
same,glycan array binding signal (z-score),[12],-0.172
same,glycan array binding signal (z-score),[13],0.039
same,glycan array binding signal (z-score),[14],-0.215
same,glycan array binding signal (z-score),[15],-0.096
same,glycan array binding signal (z-score),[16],-0.038
same,glycan array binding signal (z-score),[17],0.02
same,glycan array binding signal (z-score),[18],-0.012
same,glycan array binding signal (z-score),Gal(b1-4)GlcNAc6P,-0.145
same,glycan array binding signal (z-score),Gal(b1-6)Gal,-0.066
same,glycan array binding signal (z-score),Gal3S(b1-3)GalNAc,-0.071
same,glycan array binding signal (z-score),Gal3S(b1-3)GlcNAc,-0.06
same,glycan array binding signal (z-score),[19],0.023
same,glycan array binding signal (z-score),Gal3S(b1-4)Glc,0.004
same,glycan array binding signal (z-score),Gal3S(b1-4)Glc6S,-0.073
same,glycan array binding signal (z-score),Gal3S(b1-4)GlcNAc,-0.091
same,glycan array binding signal (z-score),[20],0.213
same,glycan array binding signal (z-score),[21],-0.05
same,glycan array binding signal (z-score),[22],-0.09
same,glycan array binding signal (z-score),Gal3S4S(b1-4)GlcNAc,0.083
same,glycan array binding signal (z-score),Gal3S6S(b1-4)GlcNAc,-0.005
same,glycan array binding signal (z-score),Gal3S6S(b1-4)GlcNAc6S,-0.09
same,glycan array binding signal (z-score),Gal4S(b1-4)GlcNAc,-0.165
same,glycan array binding signal (z-score),Gal4S6S(b1-4)GlcNAc,-0.216
same,glycan array binding signal (z-score),Gal6P(b1-4)GlcNAc,-0.017
same,glycan array binding signal (z-score),Gal6S(b1-3)GlcNAc,-0.061
same,glycan array binding signal (z-score),Gal6S(b1-3)GlcNAc6S,-0.051
same,glycan array binding signal (z-score),Gal6S(b1-4)Glc,-0.065
